Experiment [1] deals with HAP1 MTAP-intact cell line. The experiment is described as follows: SDMA in-cell western assay, HAP1 MTAP-intact. The settings on record: Homo sapiens, HAP1, read-out: Hap1 MTAP intact IC50, SDMA in-cell western, HAP1 MTAP-intact cell line.
The test system of experiment [2] is HAP1 MTAP-deleted cell line. The experiment is described as follows: SDMA in-cell western assay, HAP1 MTAP-deleted. The settings on record: Homo sapiens.

One may read the IC50 as the concentration that inhibits the measured activity by half. Usually IC90 stands for the concentration at which the effect reaches the 90% level.

Regarding `C[C@H]1CC[C@H](c2ccc3sc(C4CN(C)C4)nc3c2)N(C(=O)C(=O)Nc2cncc3c(N)nccc23)C1` [Compound 53, N-(8-amino-2,7-naphthyridin-4-yl)-2-((2R,5S)-5-methyl-2-(2-(1-methylazetidin-3-yl)benzo[d]thiazol-5-yl)piperidin-1-yl)-2-oxoacetamide], the IC50 in experiment [1] is above 50 nM; in experiment [2] (HAP1, read-out: Hap1 MTAP deleted IC50, SDMA in-cell western, HAP1 MTAP-deleted cell line), 5 to 50 nM. For the same compound, in experiment [2] (HAP1, read-out: Hap1 MTAP deleted IC90, SDMA in-cell western, HAP1 MTAP-deleted cell line), the IC90 is above 125 nM.

These data come from patent publication US20250163048A1 (Tango Therapeutics, Inc., priority 2022, published 2025).
